# Assay results reported in PubChem BioAssay AID485344 (National Center for Advancing Translational Sciences (NCATS), 2010).
# Values joined by “and” are separate entries in the source; they are usually repeats but may differ in a detail not shown here. Equal values may be shown once. Among all 340,000 compounds or so, about 6,900 (2%) were called active. Rule as the data show it: active = inhibition above about 30%; inactive = below that, where a call was filed. This is a selection; strong and weak results do not stand in their true shares. Where no call is shown, the source filed none.
# Target: D(2) dopamine receptor (Homo sapiens) (UniProt P14416)
# UniProt P14416, sequence (P14416 whole entry, looked up): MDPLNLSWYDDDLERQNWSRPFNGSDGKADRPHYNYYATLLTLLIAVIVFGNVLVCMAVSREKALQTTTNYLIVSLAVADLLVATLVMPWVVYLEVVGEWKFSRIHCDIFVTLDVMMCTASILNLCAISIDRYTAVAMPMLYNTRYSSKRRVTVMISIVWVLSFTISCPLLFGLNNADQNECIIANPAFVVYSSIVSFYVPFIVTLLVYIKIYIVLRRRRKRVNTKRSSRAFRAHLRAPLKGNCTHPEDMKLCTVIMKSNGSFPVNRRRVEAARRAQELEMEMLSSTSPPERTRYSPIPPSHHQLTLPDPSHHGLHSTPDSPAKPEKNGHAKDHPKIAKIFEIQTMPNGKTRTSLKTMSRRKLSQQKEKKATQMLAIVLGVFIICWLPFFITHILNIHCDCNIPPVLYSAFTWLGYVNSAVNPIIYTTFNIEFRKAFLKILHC
# Assay: HTS Assay for Allosteric Antagonists of the Human D2 Dopamine Receptor: Primary Screen for Antagonists; also: 0% is about no effect
# Settings: HEK293 TREx D2 cells, calcium flux, dopamine EC80; at 10 µM; stronger effect = higher value
# Source text: NIH Chemical Genomics Center [NCGC] NIH Molecular Libraries Probe Centers Network [MLPCN] MLPCN Grant: NS064831-01 Assay Submitter (PI): David Sibley Dopamine receptors (DARs) are involved in the etiology and/or therapy of a number of neuropsychiatric and endocrine disorders. For instance, all receptor-based antiparkinsonian drugs work via stimulating the D2 DAR subtype whereas all FDA-approved antipsychotic agents are antagonists of this receptor. […] There are three different types of allosteric modulators that we are seeking, two of which will stimulate or augment receptor signaling, allosteric agonists and potentiators, while the third, allosteric antagonists, will attenuate receptor signaling. The present primary screening assay measures compound antagonism after an EC80 addition of dopamine by tracking calcium flux in a […], inducible Hek293 Trex D2 cell line.
# Freshly passaged cells are plated in 1536 well black, clear bottom plates at a density of 4000 cells/well in 3 ul of complete media containing 1x tetracycline inducer. After an overnight incubation at 30 C in 5% CO2, cells are loaded with 2 ul of the no wash Calcium Assay Kit (ABD Bioquest) and incubated at room temperature for 30 to 90 minutes. Agonist read: A 10 cycle (1 second/cycle) baseline measurement is taken and then the FDSS online 1536 pintool delivers 23 nl of compound library (as well as dopamine controls) to the plate. The plate is measured for kinetically at 1 cycle/sec for 180 seconds. Following the 180 second read, 1 ul of an EC80 (negative modulation assay) is delivered by an onboard pipette head. Measurements are taken kinetically for an additional 180 seconds.
row,SMILES,inhibition
1,O=S(=O)(c1ccccc1)n1nc(-c2ccc(Cl)cc2)nc1NCc1ccccc1,3.43%
2,COc1ccc(NC(=O)Cn2c(-c3ccc(F)cc3)cc(C(C)=O)c2C)c(OC)c1,-2.11%
3,COc1ccc(NC(=O)/C=C/c2cc(Br)ccc2OC)cc1,active: 49.5%
4,CC(=O)Nc1ccc(S(=O)(=O)NCC2CCC(C(=O)NCCc3ccc(C)cc3)CC2)cc1 (stereo unspecified),3.94%
5,COc1ccc(CCNC(=O)Cn2c(=O)nc(-c3ccccc3)c3cc(Cl)ccc32)cc1OC,8.62%
6,CC(=O)c1cccc(NC(=O)c2ccc3c(c2)N(Cc2ccc(C)cc2)CCS3)c1,-0.242%
7,N#C/C(=C\c1ccc(F)cc1)c1nc(-c2ccc(-c3ccccc3)cc2)cs1,3.76%
8,COc1cccc(CC(=O)Nc2c(C(=O)N3CCN(c4ccccc4F)CC3)oc3ccccc23)c1,23.7%
9,COCCCNc1nc2c(c(=O)[nH]c(=O)n2C)n1CC(O)COc1ccc(Cl)cc1 (stereo unspecified),-12.5%
10,Cc1cc(C)c2c(=O)c3c(oc2c1)C(=O)N(CCCOC(C)C)C3c1ccccc1F (stereo unspecified),-2.44%
11,CCCC1=Nc2cc(C(=O)NC3CCCCC3)ccc2Sc2ccc(C)cc21,17.4%
12,COC(=O)c1ccccc1NC(=O)C(Cc1ccccc1)N1Cc2ccccc2C1=O (stereo unspecified),7.5%
13,O=C(Cc1ccc(Cl)cc1)Nc1ccc2oc(-c3ccc(F)cc3)nc2c1,-18.1%
14,COc1ccc(C)cc1NC(=O)Cn1cc(S(=O)(=O)N2CCC(C)CC2)c2ccccc2c1=O,-8.29%
15,CCOc1ccc(NC(=O)c2c(NCc3cc(OC)c(OC)cc3OC)sc3c2CCCC3)cc1,9.86%
16,CCN(C(=O)C(NS(=O)(=O)c1ccc(Br)s1)c1ccccc1)c1ccc(C)c(C)c1 (stereo unspecified),16.1%
17,COc1ccc(OC)c(/C=N/NC(=O)CCCC(=O)Nc2cccc(Br)c2)c1,active: 68.5%
18,COC(=O)c1c(NC(=O)c2ccc(C(C)(C)C)cc2)sc2c1CCC(C)C2 (stereo unspecified),23.2%
19,COc1cc(C2CC(=O)c3c([nH]c(C(=O)OC4CCCC4)c3C)C2)cc(OC)c1OC (stereo unspecified),1.97%
20,CCOC(=O)N1CCC(NCCNC(=O)c2ccccc2)CC1,active: 49.2% and active: 50.7%
21,Cn1cccc1-c1cc(C(=O)N/N=C/c2ccccc2Cl)[nH]n1,active: 87.6%
22,CCOC(=O)c1c(NC(=O)COc2ccccc2)sc(C(C)=O)c1C,-19.4%
23,CCN(C(=O)Cn1nc(Cc2ccncc2)c2ccccc2c1=O)c1ccc(OC)cc1,-7.58%
24,CCc1ccc(NC(=O)CNC(=O)Cn2c(C)cc3ccccc3c2=O)cc1,4.62%
25,Clc1ccc(-c2cn3cc(Cc4ccccc4)sc3n2)cc1,0.788%
26,CCOc1ccc(CCNC(=O)c2ccc(CSCc3ccccc3C)o2)cc1OCC,15.1%
